# Laboratory results reported in PMC7819943, “Rice protein-binding microarrays: a tool to detect cis-acting elements near promoter regions in rice”.
# The other results are listed elsewhere or left out.
# Target: T1, OsWOX13 (Oryza sativa, UniProt Q5QMM3 1-267)
# T1 sequence: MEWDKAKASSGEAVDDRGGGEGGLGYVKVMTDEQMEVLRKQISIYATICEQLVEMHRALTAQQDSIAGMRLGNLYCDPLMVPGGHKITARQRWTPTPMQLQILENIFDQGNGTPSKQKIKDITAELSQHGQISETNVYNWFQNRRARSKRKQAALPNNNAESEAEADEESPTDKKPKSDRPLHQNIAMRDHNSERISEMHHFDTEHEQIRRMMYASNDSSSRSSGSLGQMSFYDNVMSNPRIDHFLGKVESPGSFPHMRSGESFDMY
# Test: protein-binding microarray (RPBM); PBS, 2% BSA, 51.3 ng/ul salmon testes DNA, 50 uM zinc acetate, 200 nM TF, 25 C, 1 h; high values mean tight binding
# Settings: protein: recombinant; tags: N-terminal polyhistidine and DsRed monomer fusion (pET32a); label: CyDye5-dUTP incorporated in the synthesized complementary strand; 3' TTTTT single-stranded linker to array surface; dsDNA, one strand shown
# Procedure, shortened: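 The binding signal for each feature is its fluorescence intensity in arbitrary units. An Axon 4000B scanner was used to read a custom Agilent array that had been made double-stranded with Cy5-dUTP primer extension, blocked with 2% BSA, incubated at 25 °C for 1 h with 200 nM protein in PBS, 2% BSA, salmon testes DNA and 50 µM zinc acetate, and washed. The protein was an N-terminal polyhistidine–DsRed transcription factor fusion from E. coli BL21-CodonPlus, purified on Ni–NTA.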
row,Sequence,binding signal
1,CCTTAAACTATAATCTGTGTTAAATAACCTAGAAAGCAACCGGAGTCACCTAGTGCAG,3550 fluorescence intensity (a.u.)
2,TGGGATACTAATTAGAAGTATTAAATGTAGACTAATGATACGGAGTCACCTAGTGCAG,6830 fluorescence intensity (a.u.)
3,CTAAATTGGCGGGAGTGCCCTTGGGCGGGCTGCCGCATGCCGGAGTCACCTAGTGCAG,25200 fluorescence intensity (a.u.)
4,TGTATAATTAAGGGACCCCGTATATCTGGTTTTGTGGTTCCGGAGTCACCTAGTGCAG,7010 fluorescence intensity (a.u.)
5,CAAAACAGACATAATCTTGTTGGACAGACGTAGCCATGAACGGAGTCACCTAGTGCAG,12500 fluorescence intensity (a.u.)
6,TTTCGTGATAATTTTGTGTGCAATCACAACAATTTGAAATCGGAGTCACCTAGTGCAG,6180 fluorescence intensity (a.u.)
7,CGTGAACTAATTTATAGTCCAAAATAGATCGTAAAACCTACGGAGTCACCTAGTGCAG,5670 fluorescence intensity (a.u.)
8,GTCCTAATGTAATGATTTGTTTATTATCAAGTGAAAGAAACGGAGTCACCTAGTGCAG,20800 fluorescence intensity (a.u.)
9,TAATTAGGTTAATTAATTACTCATGGTTTATTGCTTGGAGCGGAGTCACCTAGTGCAG,18500 fluorescence intensity (a.u.)
10,CTAACTAAATTGTCTGTGGGCTGCTGGGCCTCTTCTTCGTCGGAGTCACCTAGTGCAG,19200 fluorescence intensity (a.u.)
11,TAGTAATCATATCCATCAAACGTTATAGCATGAGCGTCATCGGAGTCACCTAGTGCAG,6130 fluorescence intensity (a.u.)
12,GCATATCAATTTGTTTAGCCAATGGCAAAATTTAGAAGTCCGGAGTCACCTAGTGCAG,5810 fluorescence intensity (a.u.)
13,ATAAATTTATGGTAAATTTGAAGTTGACAAATAATAACGCCGGAGTCACCTAGTGCAG,42600 fluorescence intensity (a.u.)
14,TTTAAACTGGATGTTATTGCAAGGTTGCCACATGCAAAACCGGAGTCACCTAGTGCAG,8290 fluorescence intensity (a.u.)
15,AACCCATTGTCCAATCAAGGTTGAACTCCTCCCATCTGGACGGAGTCACCTAGTGCAG,6890 fluorescence intensity (a.u.)
16,AAGTGATTTGTTTAGTACTTCCTCCGTTTCACAATGTAAGCGGAGTCACCTAGTGCAG,20300 fluorescence intensity (a.u.)
17,AACGATGGATTGACGAAATAACGAGAGAAGCCAAGCCAAGCGGAGTCACCTAGTGCAG,16700 fluorescence intensity (a.u.)
18,TTGGGGTTGATTTTGCTGATGTTTAGCCATTTCTTTGGTACGGAGTCACCTAGTGCAG,7000 fluorescence intensity (a.u.)
19,GTGTGATTTGTTCTTCATTCCCTCCAATCATTTGCAGGCTCGGAGTCACCTAGTGCAG,40000 fluorescence intensity (a.u.)
20,GATGGATTGTAAATAACATTGATGGAGTAACTAATGAGAACGGAGTCACCTAGTGCAG,5270 fluorescence intensity (a.u.)
21,GTGAGATGATGATTACTCATCAGATCCCAAACCTACGCCCCGGAGTCACCTAGTGCAG,16900 fluorescence intensity (a.u.)
22,TTAAATTGGAACAGAGGGAGCAGTATCTACGCCCATGCCACGGAGTCACCTAGTGCAG,29500 fluorescence intensity (a.u.)
23,CTTCTAATCTATGTTATGTGATAATGGTCATGCAGGTGTTCGGAGTCACCTAGTGCAG,3780 fluorescence intensity (a.u.)
24,ACAGCTGGTGATGAAATTGATTTTCTCCTGTTAACAAAACCGGAGTCACCTAGTGCAG,8100 fluorescence intensity (a.u.)
25,AACAATATCGTTAATTTGCTAAAATTATGGGAATTGTTAACGGAGTCACCTAGTGCAG,10600 fluorescence intensity (a.u.)
26,CAAACAAGGAATAAATTAATCAATCATGCTTCTGTTAACCCGGAGTCACCTAGTGCAG,18400 fluorescence intensity (a.u.)
27,CAATCTGCCAAATGGCAATTTGGCATCAATCATTATCACACGGAGTCACCTAGTGCAG,3840 fluorescence intensity (a.u.)

row,Sequence,binding signal
1,GAATCCAGTAATATAATTAGATTGAAATCTGGATAAACAGCGGAGTCACCTAGTGCAG,31200 fluorescence intensity (a.u.)
2,CAAAACGAATTAATTAATTTGGTTTTAATTAATTTTGTTCCGGAGTCACCTAGTGCAG,46700 fluorescence intensity (a.u.)
3,ACAATGAAGGAGTTTAATTGGACTATATTTCCACATCGTTCGGAGTCACCTAGTGCAG,4180 fluorescence intensity (a.u.)
4,TAACTAAAATTATCAAATCATCGGATCGGGGTTTGGCGTTCGGAGTCACCTAGTGCAG,12500 fluorescence intensity (a.u.)
5,TTTTCCATCACATTAACCTGTCATACACACAAAACTTTTCCGGAGTCACCTAGTGCAG,4820 fluorescence intensity (a.u.)
6,GTTAAATTTGGAGCAGATTGACTTTGACCAAAACTAAAACCGGAGTCACCTAGTGCAG,36400 fluorescence intensity (a.u.)
7,GCATTCACTGGTTTAGATTGGAATTGGATGGCATCCGGAGCGGAGTCACCTAGTGCAG,22800 fluorescence intensity (a.u.)
8,TTACAGATTGGCCCCTGTATTTCTCTCTCTCGTCTCTCCTCGGAGTCACCTAGTGCAG,24800 fluorescence intensity (a.u.)
9,TCCCAACATGATGTACTTTGATTGGGCTCAATTCTAGATGCGGAGTCACCTAGTGCAG,16700 fluorescence intensity (a.u.)
10,CCAAGCAACAATAATGAAATGGGATTGAAACCACCCATAACGGAGTCACCTAGTGCAG,3450 fluorescence intensity (a.u.)
11,CTGGGAGGCAATTAATTTGAGTTGAGATCGACTTGAGAGCCGGAGTCACCTAGTGCAG,6130 fluorescence intensity (a.u.)
12,ATTAATTAACCACACTCACTCAATCCTGGAACTCGATTATCGGAGTCACCTAGTGCAG,12600 fluorescence intensity (a.u.)
13,ATTTAAATTTTCAACCTTAAATTTAGAGTTGACTTTGGTTCGGAGTCACCTAGTGCAG,13800 fluorescence intensity (a.u.)
14,AACTAATTTAACCCGGTTTTGTAAGTTAGGCGTCACGATTCGGAGTCACCTAGTGCAG,17600 fluorescence intensity (a.u.)
15,ATCAGGGATGAATTGAATGACAAGAGTAACATACAGGTAGCGGAGTCACCTAGTGCAG,3580 fluorescence intensity (a.u.)
16,GATTTGAAATTTTCAACTTAGATTTGAAAACTTTCAAGTCCGGAGTCACCTAGTGCAG,3390 fluorescence intensity (a.u.)
17,GTACTGATTAAAGTGATCAGTTCATCAGTCCACGGCAAACCGGAGTCACCTAGTGCAG,14300 fluorescence intensity (a.u.)
18,ATGATTTATAAGAATATAATTCGGACTTGACGTCAAGATGCGGAGTCACCTAGTGCAG,10500 fluorescence intensity (a.u.)
19,AAATTGACATAAATTTGAACAACCCCTTATATCTTTACTTCGGAGTCACCTAGTGCAG,18700 fluorescence intensity (a.u.)
20,TAACTAATCAATTACTGGCAGAGACGATCAACGAGCGTATCGGAGTCACCTAGTGCAG,40300 fluorescence intensity (a.u.)
21,AATTAACAGGTGGATCCTCTACAGAATAGGATTATGTTGTCGGAGTCACCTAGTGCAG,5420 fluorescence intensity (a.u.)
22,TGAATAGATAGATCTTCATGAAACGTCAGTATATGTCACCCGGAGTCACCTAGTGCAG,6300 fluorescence intensity (a.u.)
23,GGGTTCTAATTAAACATTTAATTTGCCTCTCCATGTAAGTCGGAGTCACCTAGTGCAG,26100 fluorescence intensity (a.u.)
24,CTTATCACTGACAATCCAATCCGATTTCACCTGGTTGCTTCGGAGTCACCTAGTGCAG,3180 fluorescence intensity (a.u.)
25,ATTGAGATTTGATTTTCCATCTTCAAAGTCTTTCAAAACTCGGAGTCACCTAGTGCAG,6780 fluorescence intensity (a.u.)
26,AAACGATTGAAACATTTTCGATATACTTAGTGAAACAATTCGGAGTCACCTAGTGCAG,4140 fluorescence intensity (a.u.)
27,ATGTAAAATTGGCCGATTAAATATGAAATTACTATACTACCGGAGTCACCTAGTGCAG,7500 fluorescence intensity (a.u.)
